Experimental data published in the supplement of paper PMC10126150.
Values marked as one replicate rest on one cluster of the flow cell; about a third of the high ones do not repeat.

Tested on: ATP
Assay: switch fluorescence ratio, 500 uM ATP over buffer (Cy3 cluster intensity, sum of 5 cycles each) (fold (ratio)); higher = stronger signal-on switching upon ATP binding; sequences stand for … in TCGTCGGCAGCGTCAGATGTGTATAAGAGACAGTTTTTTTTTTTTTTTTTTTTTTTTT…TC
Conditions: aptamer strand: ATP DNA aptamer (quencher-CACCTGGGGGAGTATTGCGGAGGAAGG + anchor), 100 nM annealed; ATP concentration: 500 uM; one replicate
How it was run: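 Five buffer/ATP imaging cycles were run on Cy3-labelled switching-strand clusters on a modified Illumina MiSeq flow-cell, with NaOH stripping and re-annealing between cycles. In each cycle, clusters annealed to 100 nM quencher-labelled ATP aptamer were imaged in selection buffer, then after 15 min with 500 uM ATP at 22 °C. Per cluster, the fluorescence ratio is summed target-cycle over summed buffer-cycle Cy3 intensity, averaged per switch-domain sequence. Only clusters within 100-1000 RFU were kept.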
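Further: ATP exposure 15 min at 22 °C before imaging.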

Row | Sequence | switch fluorescence ratio
1 | GACACCTTAA | 1.14
2 | AATGCTTTAT | 1.01
3 | TCTTGGACCT | 1.26
4 | CAGTTAGCG | 0.981
5 | TGGCTATCAA | 1
6 | GTTGCACTAG | 0.976
7 | TATGTTGTCA | 1.02
8 | TCTAGTCTCA | 0.993
9 | CCACATTACC | 1.52
10 | CGGCGTAATG | 1.18
11 | TCTTATCTT | 0.984
12 | CTGGCCCGTG | 1.03
13 | TCATTTATAC | 0.989
14 | TATGCAGCGT | 0.968
15 | CCTCTTATTG | 1.06
16 | GCCCACGAAG | 0.98
17 | TTCGGTACAG | 2.61
18 | TTAAAGCTA | 1.02
19 | ACTGAGGGAG | 1.09
20 | GTGTGGCGGA | 1.05
21 | TACGTCGGTG | 0.953
22 | ACATGCGGTT | 1.05
23 | CTTGTTGCGG | 1.02
24 | TGGGGGCTCG | 0.953
25 | CGTGCGCCTA | 1.08
26 | CGTGACTCTT | 0.936

Row | Sequence | switch fluorescence ratio
27 | GCTGGATAGA | 1.04
28 | CGAGTATACA | 1.07
29 | TATTTCTGAA | 0.973
30 | AGGTACCCCG | 1.01
31 | CCCTGGTTAT | 1.03
32 | GACTTCTTTG | 1.03
33 | CATAAATTTG | 0.96
34 | GCCTTTAACG | 1.08
35 | TCAAGGATGC | 0.984
36 | TGCTCATGTT | 1.03
37 | ACGGTAGTGT | 0.935
38 | AGACGGAAGG | 1
39 | AACACTTCGA | 1.02
40 | TCGAGATCGG | 0.954
41 | CCCAAGTA | 1.02
42 | AAGAATTAGG | 1
43 | TCGCGATTGG | 1.1
44 | GTTGAGAAGT | 0.969
45 | TTTTACATAT | 1.01
46 | ATTAAACCCT | 1.2
47 | CATCTATTAA | 1.05
48 | AGAGTGTCTT | 0.995
49 | GGGCCTCTCT | 0.946
50 | GGCAGTTCCA | 0.984
51 | AAGTGTTAAC | 1.02
52 | CCGGGCCAG | 1.08

Row | Sequence | switch fluorescence ratio
53 | TTTGTAATAT | 1.12
54 | GGGCGAGGGA | 1.16
55 | TTTAGAGTAC | 1.06
56 | GGCTTATCGG | 0.985
57 | GATCAGCTGA | 1.05
58 | TAGTATTACT | 0.961
59 | ATAGGTAAAA | 1.11
60 | ACAAAGGAAG | 0.991
61 | TTGAGTCCGA | 1.04
62 | TGAGGGAAAG | 1.03
63 | CAGACATCT | 1.04
64 | ACCTCATGAT | 1.02
65 | AGCCCGCCC | 1.11
66 | AACCCGTTTG | 0.976
67 | CTATCGGGTT | 1.02
68 | TCCCGGCCGC | 1.17
69 | TATTCTTTT | 0.993
70 | AGCATGACTA | 1.07
71 | TGTCGGGG | 0.998
72 | ACCATGGGGC | 1.03
73 | AGCGCTAT | 0.95
74 | TCTCGTACCC | 1.02
75 | ATACTACTCA | 1.04
76 | AGAGCCGGAG | 0.957
77 | TGACCACACT | 1.21
78 | TTCTTTGGCC | 0.975

Row | Sequence | switch fluorescence ratio
79 | GTTTGTTTGC | 1.01
80 | AAAGGATCCG | 1.05
81 | TGGCTGGTT | 0.952
82 | GACAGTATAT | 1.08
83 | AGTGACCCG | 0.971
84 | TCAGCCGGG | 1.07
85 | CGTACTCACG | 1.05
86 | TTTGCACATC | 1.6
87 | ATTATCTGGA | 1.01
88 | AGTAGACTCT | 1
89 | GAAAGTTTAG | 0.984
90 | TAGGCTCGTT | 1
91 | CAGCTTATGA | 0.958
92 | TGGCGGACTG | 1.22
93 | AAAGATGGTG | 1.04
94 | TTGAGTTGA | 1.03
95 | GCCTTAGTTC | 0.965
96 | TAGGCTGTGG | 1
97 | GCTGGGCAA | 1.03
98 | GTTGGTTAG | 0.962
99 | TCTGTCTAT | 0.978
100 | CGTAGATTAT | 1.01
101 | TATAATGAAG | 1.01
102 | GATCCCCAGG | 5.16
103 | AACAAGGCGA | 1
104 | GCAATGTGC | 1.23

Row | Sequence | switch fluorescence ratio
105 | TGATCTGTA | 0.982
106 | AGAATGTCCT | 0.996
107 | CGTAAGGAGA | 0.988
108 | GCGCTATGTT | 1.17
109 | CTTGGGGT | 1.01
110 | AGTGACTCAT | 1.04
111 | TGAGTTATGA | 0.98
112 | CAAACGTTAA | 1.28
113 | GCGATAGGTA | 1
114 | AGTCGGAGGG | 1.02
115 | TCATTATGTT | 0.988
116 | TATAGTCCCG | 1.02
117 | GCTGTAAACA | 1
118 | AGGGACCATC | 1.05
119 | ACAGTGACCG | 1.04
120 | CATCTAGAAA | 1.01
121 | GAAGGGGCGT | 0.959
122 | GGCCCCGAT | 1.01
123 | ATGATTGTTT | 1.02
124 | AAACAGGGGC | 1.11
125 | ACTCAGCTC | 1.64
126 | TCCCTTTGG | 1.54
127 | CTCGTAGCGC | 1.18
128 | ATTGCGACGA | 1.04
129 | AACATACGTG | 1.2
130 | GGCATTGGTG | 1.03

Row | Sequence | switch fluorescence ratio
131 | AATCTACAAT | 1.01
132 | GCATGAGAAG | 1.02
133 | CCATACCGGC | 1.2
134 | CGTTCAAGCA | 1.05
135 | AATCATTAGT | 0.973
136 | ATGGGAGGCA | 0.989
137 | CAACTTCATG | 0.982
138 | GTGAATGAAG | 1.02
139 | CCTCTAGAGG | 1.07
140 | ACTAAGTGTA | 0.97
141 | AGACTCAGAG | 0.963
142 | CGGCGCGAA | 1.12
143 | ACCCCCAATT | 1.75
144 | TCTTATAGCC | 0.986
145 | CTCTTACCCA | 1.06
146 | ATTCATAACT | 1
147 | ATATGGAACT | 1.05
148 | AGCCTCATTC | 0.98
149 | CGACAAGTT | 1.05
150 | CTTTACCTCA | 1.06
151 | AACTTTGGGA | 1.01
152 | AATTCCATGG | 1.01
153 | TTCCGGGTCA | 1.36
154 | TTGACTGCTA | 1.12
